Experimental data: article PMC4336329 (PLoS ONE, 2015)
Among all 310,000 compounds or so, about 2,200 (0.71%) showed an effect of 50% or more. Effects have a minus sign here. This is one part of the list.

What follows are compounds tested against human ether-à-go-go-related gene (hERG) potassium channel (human, UniProt Q12809) (assay: primary screen, population patch clamp on CHO cells stably expressing hERG).
Chain of human ether-à-go-go-related gene (hERG) potassium channel (Q12809 whole entry, looked up): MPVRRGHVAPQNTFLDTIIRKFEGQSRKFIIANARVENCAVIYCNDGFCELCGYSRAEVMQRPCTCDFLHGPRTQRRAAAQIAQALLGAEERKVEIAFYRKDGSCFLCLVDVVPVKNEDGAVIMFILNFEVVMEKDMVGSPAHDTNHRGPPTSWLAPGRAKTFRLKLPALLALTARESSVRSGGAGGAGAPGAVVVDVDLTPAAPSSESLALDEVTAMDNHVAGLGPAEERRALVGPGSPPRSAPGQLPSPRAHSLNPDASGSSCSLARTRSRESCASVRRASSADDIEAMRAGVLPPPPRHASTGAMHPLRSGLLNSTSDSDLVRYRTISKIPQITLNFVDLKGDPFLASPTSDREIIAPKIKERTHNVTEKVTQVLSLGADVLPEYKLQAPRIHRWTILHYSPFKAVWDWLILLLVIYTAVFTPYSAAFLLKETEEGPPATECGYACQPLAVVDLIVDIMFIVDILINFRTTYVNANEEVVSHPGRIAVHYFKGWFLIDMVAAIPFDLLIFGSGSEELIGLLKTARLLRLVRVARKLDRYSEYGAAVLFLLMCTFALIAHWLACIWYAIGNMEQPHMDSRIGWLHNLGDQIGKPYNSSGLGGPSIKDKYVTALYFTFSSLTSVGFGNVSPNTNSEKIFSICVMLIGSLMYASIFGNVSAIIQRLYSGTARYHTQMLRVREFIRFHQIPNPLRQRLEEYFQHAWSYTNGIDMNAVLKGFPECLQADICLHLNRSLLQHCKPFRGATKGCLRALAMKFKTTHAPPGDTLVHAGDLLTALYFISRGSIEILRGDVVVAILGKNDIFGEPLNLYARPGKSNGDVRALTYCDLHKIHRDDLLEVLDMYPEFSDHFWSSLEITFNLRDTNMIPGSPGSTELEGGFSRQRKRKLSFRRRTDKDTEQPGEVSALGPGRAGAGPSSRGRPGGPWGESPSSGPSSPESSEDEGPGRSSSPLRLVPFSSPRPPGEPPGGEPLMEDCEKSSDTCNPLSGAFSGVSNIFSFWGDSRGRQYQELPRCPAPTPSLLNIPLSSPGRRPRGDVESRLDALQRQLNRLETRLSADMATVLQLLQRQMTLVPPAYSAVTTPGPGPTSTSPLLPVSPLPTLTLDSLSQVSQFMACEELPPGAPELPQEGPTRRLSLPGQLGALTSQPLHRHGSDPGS

First: Cc1occc1-c1nnc(SCC(=O)NC2CC2)n1C(C)C
Second: CC1=C(C(=O)OC(C)C)C(c2ccsc2)NC(=O)N1C (centres unmarked)
The “hERG current change (%, negative = inhibition) at 1uM” value of the first is higher: 19.1% for the first, 17.1% for the second.

Compared with `COc1cccc(CNC(=O)CCc2nnc(C3CCCCC3)o2)c1`, `COc1cccc(CC(=O)OCC(=O)NC2CCCC2)c1` is higher in “hERG current change (%, negative = inhibition) at 1uM” value: 3.18% for the first, 8.81% for the second.

Going from `N/C(=N\OC(=O)c1cccc([N+](=O)[O-])c1)c1ccccn1` to `COc1cc2c(cc1NC(=O)c1cccc([N+](=O)[O-])c1)oc1ccccc12`, the “hERG current change (%, negative = inhibition) at 1uM” value falls from 13.4% to 1.58%.

Compared with `CC(=O)Nc1sc2c(c1C#N)CCC2`, `CC(C)CCNC(=O)COc1ccc2c3c(c(=O)oc2c1)CCC3` is lower in “hERG current change (%, negative = inhibition) at 1uM” value: 9.2% for the first, 7.29% for the second.

Compared with `CCOc1ccc(/C=C/C(=O)c2ccccc2)cc1OC`, `COc1ccc(-c2nnn(Cc3ccccc3)n2)cc1OC` is higher in “hERG current change (%, negative = inhibition) at 1uM” value: 9% for the first, 13.8% for the second.

First: CCOc1ccccc1NC(=O)N1CCCC(c2nc(-c3ccc(C)o3)no2)C1 (centres unmarked)
Second: N#CC1(NC(=O)COc2ccc3oc4ccccc4c3c2)CCCCC1
The “hERG current change (%, negative = inhibition) at 1uM” value of the first is lower: -10.7% for the first, 11.8% for the second.

Compared with `CN(C)c1ccc(NC(=S)NC(=O)/C=C/c2ccco2)cc1`, `Cc1c(NC(=S)N/N=C/c2ccc(Br)cc2)c(=O)n(-c2ccccc2)n1C` is higher in “hERG current change (%, negative = inhibition) at 1uM” value: 11.9% for the first, 14.6% for the second.

Going from `CC(=O)c1nc(N2C(=O)CC(Cc3ccccc3)C2=O)sc1C` (centres unmarked) to `O=C(O)CC1Sc2nc3ccccc3n2C1=O` (centres unmarked), the “hERG current change (%, negative = inhibition) at 1uM” value rises from -1.13% to 0.0821%.

Going from `O=C(N/N=C/c1c(F)c(F)c(F)c(F)c1F)c1ccc(Cn2cc(Br)cn2)o1` to `COc1ccc(CCNC(=S)NNC(=O)c2c(Br)c(C)nn2C)cc1OC`, the “hERG current change (%, negative = inhibition) at 1uM” value rises from 1.3% to 14%.

First: CCCCn1c(N)c(N(CC)C(=O)c2ccc(Cl)c([N+](=O)[O-])c2)c(=O)[nH]c1=O
Second: CCCCN1C=C(C(=O)OC)C(c2ccccc2Cl)C(C(=O)OC)=C1
The “hERG current change (%, negative = inhibition) at 1uM” value of the first is higher: 15.7% for the first, -10.2% for the second.

First: CCOc1ccc(NC(=O)c2ccc3c(SCC(=O)O)c4c(nc3c2)CCCC4)cc1
Second: COc1ccc(C)cc1Nc1c2c(nc3ccccc13)CCC2
The “hERG current change (%, negative = inhibition) at 1uM” value of the first is higher: 11.6% for the first, -3.07% for the second.

First: Cc1ccccc1C(=O)Oc1ccccc1N1C(=O)C2CC=CCC2C1=O (centres unmarked)
Second: O=C1Nc2ccccc2N(O)N1c1cc(-c2ccccc2Cl)no1
The “hERG current change (%, negative = inhibition) at 1uM” value of the first is lower: 4.5% for the first, 6.52% for the second.

Going from `Cc1ccc(C2CN(C)CC2C(=O)c2ccc(F)cc2)cc1` (centres unmarked) to `COC(=O)Nc1nc2ccc(C(=O)c3ccc(F)cc3)cc2[nH]1`, the “hERG current change (%, negative = inhibition) at 1uM” value rises from -2.34% to 13.7%.

Compared with `COC(=O)c1[nH]c2c(c1C)C(=O)CC(c1cccc(OC)c1)C2` (centres unmarked), `COc1ccc2c(c1)C(=O)Cc1ccccc1O2` is higher in “hERG current change (%, negative = inhibition) at 1uM” value: -4.82% for the first, 12% for the second.

First: CCOC(=O)N1C2=NC(C(=O)OC)=C(C(=O)OC)[C@@H]3Nc4ccccc4[C@]23C[C@H]1C(=O)OC
Second: CCCCNC(=O)[C@H]1C[C@H]1[C@@H](O)[C@H](CO)NC(=O)[C@H](COCc1ccccc1)NC(=O)OC(C)(C)C
The “hERG current change (%, negative = inhibition) at 1uM” value of the first is lower: 9.36% for the first, 17.7% for the second.

Going from `COc1cc2c(cc1OC)CN(C(=O)c1ccc3nc[nH]c3c1)CC2` to `COc1cc(C(CC(=O)Nc2ccc(Cl)cn2)N2Cc3ccccc3C2=O)cc(OC)c1OC` (centres unmarked), the “hERG current change (%, negative = inhibition) at 1uM” value falls from -5.84% to -41.3%.

Going from `CCOC(=O)c1cn2nc(Oc3ccc(OC)cc3)ccc2n1` to `CCOC(=O)C1CCN(C(=O)c2ccc3nc(-c4ccc(OC)cc4)c(-c4ccc(OC)cc4)nc3c2)CC1`, the “hERG current change (%, negative = inhibition) at 1uM” value rises from 14.2% to 14.3%.

Compared with `COc1ccc(/C=C/c2cc[n+](C(=O)Cc3ccccc3)cc2)cc1.[Cl-]`, `CS(=O)(=O)c1ccc2nc(NC(=O)Oc3ccccc3)sc2c1` is higher in “hERG current change (%, negative = inhibition) at 1uM” value: -9.08% for the first, 11% for the second.

Going from `COc1cccc(/C=N/NC(N)=S)c1OS(=O)(=O)c1ccccc1` to `Cc1nnc(SCC(=O)Nc2ccccc2)c2ccccc12`, the “hERG current change (%, negative = inhibition) at 1uM” value rises from 8.37% to 13.8%.

First: CCCCN(C1CCS(=O)(=O)C1)S(=O)(=O)c1ccc(C(C)C)cc1 (centres unmarked)
Second: Cn1nc(C(=O)Nc2ccc(S(=O)(=O)N3CCCCC3)cc2)ccc1=O
The “hERG current change (%, negative = inhibition) at 1uM” value of the first is higher: 9.29% for the first, 1.27% for the second.

Compared with `Cc1cc(C)c(OCC(=O)OCCNC(=O)c2cccnc2)c(C)c1.Cl`, `CCOC(=O)Cn1nc(C)n(-c2ccc(C(C)(C)C)cc2)c1=O` is lower in “hERG current change (%, negative = inhibition) at 1uM” value: 7.13% for the first, -1.17% for the second.

Compared with `CCN(CC(=O)Nc1c(F)cccc1F)C(=O)C1CCN(C(=O)Nc2ccccc2)CC1`, `CSc1ccc(NC(=O)C(C)N2CCN(C)CC2)cc1.O=C(O)C(=O)O` (centres unmarked) is higher in “hERG current change (%, negative = inhibition) at 1uM” value: 6.63% for the first, 7.99% for the second.

Compared with `CCC(CCC(=O)Nc1cccc([N+](=O)[O-])c1)C(=O)O` (centres unmarked), `O=C(NCCN1CCOCC1)c1cc([N+](=O)[O-])cc([N+](=O)[O-])c1` is higher in “hERG current change (%, negative = inhibition) at 1uM” value: 9.87% for the first, 12.5% for the second.

Going from `O=C(CN(C(=O)Cn1nnc(-c2cccs2)n1)c1ccc2c(c1)OCCO2)NC1CCCCC1` to `CCOc1cc(C#N)ccc1OCC(=O)N1CCN(C(=O)c2cccs2)CC1`, the “hERG current change (%, negative = inhibition) at 1uM” value falls from 8.84% to -16.1%.

Compared with `CC(CN1CCOCC1)OC(=O)Cc1ccc(Cl)cc1.Cl` (centres unmarked), `N#Cc1nc(Cc2cccc3ccccc23)oc1N1CCCCC1` is lower in “hERG current change (%, negative = inhibition) at 1uM” value: 8.59% for the first, 5.23% for the second.

Compared with `COC(=O)c1ccc(NC(=O)CSc2nc3[nH]ncc3c(=O)[nH]2)cc1`, `O=C(O)c1ccc2cccc(O)c2n1` is lower in “hERG current change (%, negative = inhibition) at 1uM” value: 17.5% for the first, 14.3% for the second.

Going from `O=C(c1ccc(F)cc1)N1CCCC(C(=O)N2CCCCC2)C1` (centres unmarked) to `CN1CCN(CCNC(=O)c2ccc3nc(-c4ccc(F)cc4)c(-c4ccc(F)cc4)nc3c2)CC1`, the “hERG current change (%, negative = inhibition) at 1uM” value falls from 13.5% to 4.3%.

First: Clc1cccc(Nc2nc(-c3ccncc3)cs2)c1
Second: O=C(CCCN1C(=O)/C(=C/c2cccs2)SC1=S)Nc1ccccc1O
The “hERG current change (%, negative = inhibition) at 1uM” value of the first is higher: 13.3% for the first, 8.37% for the second.
